No constants are given. Whether binding was seen depends on the method and setting. Binding seen in cells or lysates may run through a third protein. Some entries that bind do so weakly or less than the wild type. Sequences can lack the tags named with a protein.
T1: TKS5-EGFP (UniProt Q5TCZ1)
T1 sequence: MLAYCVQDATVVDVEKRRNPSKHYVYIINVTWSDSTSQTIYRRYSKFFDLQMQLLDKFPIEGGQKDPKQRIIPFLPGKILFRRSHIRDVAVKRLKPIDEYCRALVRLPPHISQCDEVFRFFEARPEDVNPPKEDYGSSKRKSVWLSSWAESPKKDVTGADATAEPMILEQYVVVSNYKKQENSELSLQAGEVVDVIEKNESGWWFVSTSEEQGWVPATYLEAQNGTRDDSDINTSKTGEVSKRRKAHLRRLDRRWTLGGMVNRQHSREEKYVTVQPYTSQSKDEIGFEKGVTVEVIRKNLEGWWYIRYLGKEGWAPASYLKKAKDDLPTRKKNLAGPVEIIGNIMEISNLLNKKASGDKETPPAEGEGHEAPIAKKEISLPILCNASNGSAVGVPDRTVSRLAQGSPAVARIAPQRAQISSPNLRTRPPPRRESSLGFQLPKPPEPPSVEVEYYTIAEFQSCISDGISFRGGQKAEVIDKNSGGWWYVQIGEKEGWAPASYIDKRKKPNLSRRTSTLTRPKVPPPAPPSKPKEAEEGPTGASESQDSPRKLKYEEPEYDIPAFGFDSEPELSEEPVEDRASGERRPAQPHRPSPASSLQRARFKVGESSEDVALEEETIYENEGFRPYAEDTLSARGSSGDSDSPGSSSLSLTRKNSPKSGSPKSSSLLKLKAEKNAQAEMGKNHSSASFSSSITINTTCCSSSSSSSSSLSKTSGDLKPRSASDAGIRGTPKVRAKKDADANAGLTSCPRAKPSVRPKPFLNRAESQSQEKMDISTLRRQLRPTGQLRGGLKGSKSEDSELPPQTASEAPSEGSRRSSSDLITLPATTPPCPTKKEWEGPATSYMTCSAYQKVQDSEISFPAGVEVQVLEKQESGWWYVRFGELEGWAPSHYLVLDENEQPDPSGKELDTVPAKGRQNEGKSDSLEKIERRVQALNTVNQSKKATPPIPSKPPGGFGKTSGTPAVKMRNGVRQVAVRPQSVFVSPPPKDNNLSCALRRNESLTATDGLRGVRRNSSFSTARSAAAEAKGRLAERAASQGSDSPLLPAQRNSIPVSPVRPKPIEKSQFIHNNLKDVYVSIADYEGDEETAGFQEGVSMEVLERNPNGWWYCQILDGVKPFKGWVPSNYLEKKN

T2: TKS5-EGFP, Q5TCZ1
T2 chain: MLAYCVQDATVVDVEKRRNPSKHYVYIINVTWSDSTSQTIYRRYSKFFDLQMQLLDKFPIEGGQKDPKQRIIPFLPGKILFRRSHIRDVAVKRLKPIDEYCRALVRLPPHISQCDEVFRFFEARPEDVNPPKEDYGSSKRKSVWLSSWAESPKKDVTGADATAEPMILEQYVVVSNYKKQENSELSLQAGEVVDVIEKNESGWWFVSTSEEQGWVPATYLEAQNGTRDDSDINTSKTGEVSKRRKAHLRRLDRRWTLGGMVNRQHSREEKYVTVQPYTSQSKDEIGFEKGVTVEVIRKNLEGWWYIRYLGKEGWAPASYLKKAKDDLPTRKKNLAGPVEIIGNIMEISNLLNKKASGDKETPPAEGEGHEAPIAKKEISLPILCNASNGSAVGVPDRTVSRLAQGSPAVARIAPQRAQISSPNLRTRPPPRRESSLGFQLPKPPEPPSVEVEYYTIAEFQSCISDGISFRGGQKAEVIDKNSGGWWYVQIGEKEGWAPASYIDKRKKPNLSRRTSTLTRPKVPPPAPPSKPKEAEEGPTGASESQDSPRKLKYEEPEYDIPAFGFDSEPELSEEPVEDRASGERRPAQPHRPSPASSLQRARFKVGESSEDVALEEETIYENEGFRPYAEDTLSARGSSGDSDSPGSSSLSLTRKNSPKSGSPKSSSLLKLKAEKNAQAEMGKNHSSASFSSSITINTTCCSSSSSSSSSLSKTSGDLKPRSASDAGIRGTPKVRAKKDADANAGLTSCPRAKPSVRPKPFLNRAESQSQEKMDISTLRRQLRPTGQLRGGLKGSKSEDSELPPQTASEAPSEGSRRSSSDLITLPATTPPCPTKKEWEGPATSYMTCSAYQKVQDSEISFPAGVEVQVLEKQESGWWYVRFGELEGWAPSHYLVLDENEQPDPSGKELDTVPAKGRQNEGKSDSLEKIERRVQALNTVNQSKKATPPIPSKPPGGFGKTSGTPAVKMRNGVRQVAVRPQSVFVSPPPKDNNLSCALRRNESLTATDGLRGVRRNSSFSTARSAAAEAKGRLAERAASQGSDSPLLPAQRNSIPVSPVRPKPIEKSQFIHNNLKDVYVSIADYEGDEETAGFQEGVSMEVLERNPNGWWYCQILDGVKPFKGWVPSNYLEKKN


Legend:
[1] = target: GST-SH3 (SH3 domain of cortactin fused to GST) (UniProt Q14247); experiment: pull-down; GST-SH3 (cortactin) on Glutathione Sepharose 4B beads incubated with 450 ug MKN-74 cell lysate, 2 h at 4 °C, six washes with GST-buffer, anti-HS1BP3 immunoblot; only the target purified
TKS5-EGFP = target: T1, TKS5-EGFP; experiment: co-IP; GFP-Trap agarose beads, at least 450 ug MKN-74 lysate in RIPA buffer, 2.5 h, four washes in RIPA buffer, immunoblot; for TKS5-EGFP in MKN-74 WT and HS1BP3 KO cells
TKS5-EGFP, Q5TCZ1 = target: T2, TKS5-EGFP, Q5TCZ1; experiment: as above; conditions: remark: other sources report otherwise

Row | binding [1] | binding (TKS5-EGFP) | binding (TKS5-EGFP, Q5TCZ1) | Binder
1 | binds | no binding |  | HCLS1-binding protein 3 (HS1BP3), endogenous in MKN-74 cells (protein, UniProt Q53T59 1-392) MQSPAVLVTSRRLQNAHTGLDLTVPQHQEVRGKMMSGHVEYQILVVTRLAAFKSAKHRPEDVVQFLVSKKYSEIEEFYQKLSSRYAAASLPPLPRKVLFVGESDIRERRAVFNEILRCVSKDAELAGSPELLEFLGTRSPGAAGLTSRDSSVLDGTDSQTGNDEEAFDFFEEQDQVAEEGPPVQSLKGEDAEESLEEEEALDPLGIMRSKKPKKHPKVAVKAKPSPRLTIFDEEVDPDEGLFGPGRKLSPQDPSEDVSSVDPLKLFDDPDLGGAIPLGDSLLLPAACESGGPTPSLSHRDASKELFRVEEDLDQILNLGAEPKPKPQLKPKPPVAAKPVIPRKPAVPPKAGPAEAVAGQQKPQEQIQAMDEMDILQYIQDHDTPAQAAPSLF
2 | binds |  |  | EGFP-HS1BP3 WT (protein, UniProt Q53T59 1-392) MQSPAVLVTSRRLQNAHTGLDLTVPQHQEVRGKMMSGHVEYQILVVTRLAAFKSAKHRPEDVVQFLVSKKYSEIEEFYQKLSSRYAAASLPPLPRKVLFVGESDIRERRAVFNEILRCVSKDAELAGSPELLEFLGTRSPGAAGLTSRDSSVLDGTDSQTGNDEEAFDFFEEQDQVAEEGPPVQSLKGEDAEESLEEEEALDPLGIMRSKKPKKHPKVAVKAKPSPRLTIFDEEVDPDEGLFGPGRKLSPQDPSEDVSSVDPLKLFDDPDLGGAIPLGDSLLLPAACESGGPTPSLSHRDASKELFRVEEDLDQILNLGAEPKPKPQLKPKPPVAAKPVIPRKPAVPPKAGPAEAVAGQQKPQEQIQAMDEMDILQYIQDHDTPAQAAPSLF
3 |  |  | binds | cortactin (CTTN), endogenous in MKN-74 cells, Q14247 1-550 (protein) MWKASAGHAVSIAQDDAGADDWETDPDFVNDVSEKEQRWGAKTVQGSGHQEHINIHKLRENVFQEHQTLKEKELETGPKASHGYGGKFGVEQDRMDKSAVGHEYQSKLSKHCSQVDSVRGFGGKFGVQMDRVDQSAVGFEYQGKTEKHASQKDYSSGFGGKYGVQADRVDKSAVGFDYQGKTEKHESQRDYSKGFGGKYGIDKDKVDKSAVGFEYQGKTEKHESQKDYVKGFGGKFGVQTDRQDKCALGWDHQEKLQLHESQKDYKTGFGGKFGVQSERQDSAAVGFDYKEKLAKHESQQDYSKGFGGKYGVQKDRMDKNASTFEDVTQVSSAYQKTVPVEAVTSKTSNIRANFENLAKEKEQEDRRKAEAERAQRMAKERQEQEEARRKLEEQARAKTQTPPVSPAPQPTEERLPSSPVYEDAASFKAELSYRGPVSGTEPEPVYSMEAADYREASSQQGLAYATEAVYESAEAPGHYPAEDSTYDEYENDLGITAVALYDYQAAGDDEISFDPDDIITNIEMIDDGWWRGVCKGRYGLFPANYVELRQ

Source: paper PMC13399123
